According to PMC9000059:
These are yes or no findings as the source states them, for the method shown. In cells and extracts the contact can be indirect. Some entries that bind do so weakly or less than the wild type.

By UniProt entry, the sequences of proteins in these tests, tags left out. Residues count along the entry.
UniProt P56726, residues 33-793: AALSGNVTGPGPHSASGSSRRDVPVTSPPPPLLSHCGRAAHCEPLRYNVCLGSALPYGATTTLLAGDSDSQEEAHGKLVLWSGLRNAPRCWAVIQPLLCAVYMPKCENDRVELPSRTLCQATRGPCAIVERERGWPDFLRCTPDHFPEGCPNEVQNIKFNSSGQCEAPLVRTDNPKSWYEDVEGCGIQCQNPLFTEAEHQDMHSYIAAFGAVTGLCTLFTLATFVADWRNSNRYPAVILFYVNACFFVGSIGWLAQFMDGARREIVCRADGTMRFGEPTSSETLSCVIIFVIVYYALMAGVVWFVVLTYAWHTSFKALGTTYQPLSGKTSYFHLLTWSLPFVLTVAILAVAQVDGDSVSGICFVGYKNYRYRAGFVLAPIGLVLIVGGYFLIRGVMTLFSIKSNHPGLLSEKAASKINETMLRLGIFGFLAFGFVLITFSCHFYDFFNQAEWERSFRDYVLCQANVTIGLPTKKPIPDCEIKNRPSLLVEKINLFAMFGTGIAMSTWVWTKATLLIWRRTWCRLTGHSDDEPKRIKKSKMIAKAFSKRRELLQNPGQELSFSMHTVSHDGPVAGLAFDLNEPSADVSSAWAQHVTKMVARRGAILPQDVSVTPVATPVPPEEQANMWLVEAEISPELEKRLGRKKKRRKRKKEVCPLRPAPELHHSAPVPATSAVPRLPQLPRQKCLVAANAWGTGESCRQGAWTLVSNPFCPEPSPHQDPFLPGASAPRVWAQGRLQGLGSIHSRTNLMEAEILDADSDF
UniProt Q15363, residues 21-201: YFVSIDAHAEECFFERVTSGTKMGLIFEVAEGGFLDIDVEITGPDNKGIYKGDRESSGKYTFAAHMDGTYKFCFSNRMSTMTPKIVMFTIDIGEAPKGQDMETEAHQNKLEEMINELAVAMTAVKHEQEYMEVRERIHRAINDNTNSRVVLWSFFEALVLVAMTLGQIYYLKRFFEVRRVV
UniProt Q9R0Q3, residues 21-201: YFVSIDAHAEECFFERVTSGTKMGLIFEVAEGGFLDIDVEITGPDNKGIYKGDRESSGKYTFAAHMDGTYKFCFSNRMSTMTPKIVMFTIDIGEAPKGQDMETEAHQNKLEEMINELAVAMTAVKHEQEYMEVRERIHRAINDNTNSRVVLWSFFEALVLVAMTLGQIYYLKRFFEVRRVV

Columns and labels:
[1] = molecular target: SMO–HA transfected in 293T cells (mouse) (UniProt P56726); assay: co-IP; 293T cells transfected with SMO–HA or FZD2-HA; HA immunopurification; blot for endogenous TMED2
[2] = molecular target: N-terminally tagged SMO (HA–SMO) (mouse) (UniProt P56726); assay: co-IP; extracts of NPCs derived from ESCs expressing SMO–HA or HA–SMO, without SHH; membrane lysis buffer with 1% ChAPS; anti-HA affinity matrix, 1 hour; blot for endogenous TMED2
[3] = molecular target: carboxyl-terminally hemagglutinin (HA) epitope tagged SMO protein (SMO–HA) (mouse) (UniProt P56726); assay: as above
[4] = molecular target: N-terminally tagged SMO (HA–SMO) (mouse) (UniProt P56726); assay: co-IP; extracts of NPCs expressing HA–SMO or SMO–HA, cells treated with recombinant SHH for the indicated times (from 1 hour); membrane lysis buffer with 1% ChAPS; anti-HA affinity matrix; blot for endogenous TMED2
[5] = molecular target: carboxyl-terminally hemagglutinin (HA) epitope tagged SMO protein (SMO–HA) (mouse) (UniProt P56726); assay: as above
[6] = molecular target: carboxyl-terminally hemagglutinin (HA) epitope tagged SMO protein (SMO–HA) (mouse) (UniProt P56726); assay: co-IP; extracts of mouse ESC clones expressing SMO–HA; membrane lysis buffer (50 mM Tris-HCl pH 7.5, 1 mM β-mercaptoethanol, 150 mM NaCl, 1% ChAPS); anti-HA affinity matrix, 1 hour; blot for endogenous TMED2 and TMED10
[7] = molecular target: N-terminally tagged SMO (HA–SMO) (mouse) (UniProt P56726); assay: condition: only NPCs treated with recombinant SHH (as early as 1 hour); co-IP; extracts of NPCs expressing HA–SMO or SMO–HA, cells treated with recombinant SHH for the indicated times (from 1 hour); membrane lysis buffer with 1% ChAPS; anti-HA affinity matrix; blot for endogenous TMED2

“TMED2 (endogenous, 293T cells) (from UniProt Q15363 21-201)” was tested, and the binding [1] was “binds”.

“TMED2 (endogenous, mouse) (from UniProt Q9R0Q3 21-201)” was tested, and the binding [2] was “binds”, the binding [3] was “binds” and the binding [4] was “binds weakly”. The binding [5] was “no binding (condition: NPCs treated with recombinant SHH)”, the binding [6] was “binds” and the binding [7] was “no binding”.

B1: TMED10 (endogenous, mouse) (protein, UniProt Q9D1D4 32-219)
chain: ISFHLPVNSRKCLREEIHKDLLVTGAYEITDQSGGAGGLRTHLKITDSAGHILYAKEDATKGKFAFTTEDYDMFEVCFESKGTGRIPDQLVILDMKHGVEAKNYEEIAKVEKLKPLEVELRRLEDLSESIVNDFAYMKKREEEMRDTNESTNTRVLYFSIFSMFCLIGLATWQVFYLRRFFKAKKLIE
For B1, the binding [6] was “no binding”.
